Experimental data reported in the supplement of paper PMC4604168 (melanoma cell lines).
This is one part of the list. Repeats are few or missing, and single values can be far off.

Assays:
Assay in all cases: cell count relative to DMSO control; melanoma cells; higher = more viable cells
Conditions in all cases: library dose: standard library concentration; 72 h
[1] = system: SkMel28
[2] = system: SkMel2
[3] = system: SkMel30
[4] = system: SkMel5
[5] = system: UACC257
[6] = system: UACC62
[7] = system: WM115
[8] = system: WM1716
[9] = system: WM1745
[10] = system: WM3526
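Note: cells treated in 1,536-well plates, then fixed and DAPI-stained, with nuclei counted from automated high-throughput microscope images.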

Structure (SMILES)	cell count [1] [%]	cell count [2] [%]	cell count [3] [%]	cell count [4] [%]	cell count [5] [%]	cell count [6] [%]	cell count [7] [%]	cell count [8] [%]	cell count [9] [%]	cell count [10] [%]
O=C(/C=C/c1cccnc1)NCCCCC1CCN(C(=O)c2ccccc2)CC1 + Nc1cccc2c1CN(C1CCC(=O)NC1=O)C2=O [lenalidomide] (first compound 0.05 µM, partner dose 5 µM)	80.5	17.6	103	90.2	96.3	64.5	91.7	75.6	72.1	105
O=C(/C=C/c1cccnc1)NCCCCC1CCN(C(=O)c2ccccc2)CC1 + Cc1cc(N2CCOCC2)cc2[nH]c(-c3c(NC[C@@H](O)c4cccc(Cl)c4)cc[nH]c3=O)nc12 [BMS536924] (first compound 0.05 µM, partner dose 1 µM)	102	15	76.7	82	93.2	95.2	99	75.8	49.9	66.2
O=C(/C=C/c1cccnc1)NCCCCC1CCN(C(=O)c2ccccc2)CC1 + Cc1nc(Nc2ncc(C(=O)Nc3c(C)cccc3Cl)s2)cc(N2CCN(CCO)CC2)n1 [dasatanib] (first compound 0.05 µM, partner dose 0.02 µM)	62.7	11.3	89.5	70	92.6	81.6	50	49.8	59.7	82.8
O=C(/C=C/c1cccnc1)NCCCCC1CCN(C(=O)c2ccccc2)CC1 + Cn1sc(=O)n(Cc2ccccc2)c1=O [TDZD-8] (first compound 0.05 µM, partner dose 2 µM)	74.5	18.3	81.9	99.6	95.4	93	86.1	66.6	88.6	87
CC1(C)CCC(c2ccc(Cl)cc2)=C(CN2CCN(c3ccc(C(=O)NS(=O)(=O)c4ccc(N[C@H](CCN5CCOCC5)CSc5ccccc5)c(S(=O)(=O)C(F)(F)F)c4)cc3)CC2)C1 + Cc1ccc(NC(=O)c2cccc(N(C)C)c2)cc1NC(=O)c1ccc(O)cc1 [ZM336372] (first compound 2 µM, partner dose 10 µM)	69.3	57.8	79.8	68.3	42.1	85.5	75.7	63.5	1.45	79.9
Cc1ccc(Nc2nccc(N(C)c3ccc4c(C)n(C)nc4c3)n2)cc1S(N)(=O)=O [Pazopanib] + CC(C)(C)c1cnc(CSc2cnc(NC(=O)C3CCNCC3)s2)o1 [SNS-032] (first compound 2 µM, partner dose 0.05 µM)	63.8	70.2	71.3	55.1	81.2	51.4	82.7	75	83.5	94.2
CC1(C)CCC(c2ccc(Cl)cc2)=C(CN2CCN(c3ccc(C(=O)NS(=O)(=O)c4ccc(N[C@H](CCN5CCOCC5)CSc5ccccc5)c(S(=O)(=O)C(F)(F)F)c4)cc3)CC2)C1 + COCC[n+]1c2c(n(Cc3cnccn3)c1C)C(=O)c1ccccc1C2=O [YM155] (first compound 2 µM, partner dose 0.002 µM)	20.3	19.6	49.8	17.8	25.9	39.7	56.8	21.8	4.26	24.4
CC1(C)CCC(c2ccc(Cl)cc2)=C(CN2CCN(c3ccc(C(=O)NS(=O)(=O)c4ccc(N[C@H](CCN5CCOCC5)CSc5ccccc5)c(S(=O)(=O)C(F)(F)F)c4)cc3)CC2)C1 + OCc1c[nH]c2ccccc12 [Indole-3-carbinol] (first compound 2 µM, partner dose 4 µM)	69	71.2	63.4	96	46.8	60.6	95.2	71.7	4.03	78.2
Cc1ccc(Nc2nccc(N(C)c3ccc4c(C)n(C)nc4c3)n2)cc1S(N)(=O)=O [Pazopanib] + COc1ccc(Cl)c(Nc2nc3ccccc3nc2NS(=O)(=O)c2cccc(NC(=O)C(C)(C)N)c2)c1 [XL147] (first compound 2 µM, partner dose 4 µM)	70.2	93.3	101	55.5	76.3	61.8	75.9	71.3	69.9	69.5
Cc1ccc(Nc2nccc(N(C)c3ccc4c(C)n(C)nc4c3)n2)cc1S(N)(=O)=O [Pazopanib] + Cc1cn(-c2cc(NC(=O)c3ccc(C)c(Nc4nccc(-c5cccnc5)n4)c3)cc(C(F)(F)F)c2)cn1 [nilotinib] (first compound 2 µM, partner dose 1 µM)	81.2	87.8	93	48.8	83.7	54.3	92.5	112	84.5	71.8
CC1(C)CCC(c2ccc(Cl)cc2)=C(CN2CCN(c3ccc(C(=O)NS(=O)(=O)c4ccc(N[C@H](CCN5CCOCC5)CSc5ccccc5)c(S(=O)(=O)C(F)(F)F)c4)cc3)CC2)C1 + Cc1cn(-c2cc(NC(=O)c3ccc(C)c(Nc4nccc(-c5cccnc5)n4)c3)cc(C(F)(F)F)c2)cn1 [nilotinib] (first compound 2 µM, partner dose 1 µM)	66.5	73.9	79.6	65.3	37.4	72.6	74.8	54	1.16	82.1
CC1(C)CCC(c2ccc(Cl)cc2)=C(CN2CCN(c3ccc(C(=O)NS(=O)(=O)c4ccc(N[C@H](CCN5CCOCC5)CSc5ccccc5)c(S(=O)(=O)C(F)(F)F)c4)cc3)CC2)C1 + CO[C@H]1C[C@@H]2CC[C@@H](C)[C@@](O)(O2)C(=O)C(=O)N2CCCC[C@H]2C(=O)O[C@H]([C@H](C)C[C@@H]2CC[C@@H](OCCO)[C@H](OC)C2)CC(=O)[C@H](C)/C=C(\C)[C@@H](O)[C@@H](OC)C(=O)[C@H](C)C[C@H](C)/C=C/C=C/C=C/1C [everolimus] (first compound 2 µM, partner dose 0.1 µM)	34.6	49.8	57.4	45.2	44.1	59.5	36.3	47.2	10.6	61.9
O=C(/C=C/c1cccnc1)NCCCCC1CCN(C(=O)c2ccccc2)CC1 + Cc1cc(Nc2cc(N3CCN(C)CC3)nc(/C=C/c3ccccc3)n2)n[nH]1 [ENMD2076] (first compound 0.05 µM, partner dose 0.2 µM)	60.2	15.6	89.6	85	87.8	58.8	59	68.9	50.3	70.8
Cc1ccc(Nc2nccc(N(C)c3ccc4c(C)n(C)nc4c3)n2)cc1S(N)(=O)=O [Pazopanib] + CO[C@@H]1[C@H](N(C)C(=O)c2ccccc2)C[C@H]2O[C@]1(C)n1c3ccccc3c3c4c(c5c6ccccc6n2c5c31)C(=O)NC4 [Midostaurin] (first compound 2 µM, partner dose 0.4 µM)	47.5	41.1	67.8	49.9	64.7	55.4	43	46	35.4	63.5
Cc1ccc(Nc2nccc(N(C)c3ccc4c(C)n(C)nc4c3)n2)cc1S(N)(=O)=O [Pazopanib] + C=C(c1ccc(C(=O)O)cc1)c1cc2c(cc1C)C(C)(C)CCC2(C)C [Bexarotene] (first compound 2 µM, partner dose 10 µM)	74.4	84	98.9	79.8	78.4	80.4	95.3	99.3	84.7	75.4
CC1(C)CCC(c2ccc(Cl)cc2)=C(CN2CCN(c3ccc(C(=O)NS(=O)(=O)c4ccc(N[C@H](CCN5CCOCC5)CSc5ccccc5)c(S(=O)(=O)C(F)(F)F)c4)cc3)CC2)C1 + CS(=O)(=O)CCNCc1ccc(-c2ccc3ncnc(Nc4ccc(OCc5cccc(F)c5)c(Cl)c4)c3c2)o1 [lapatinib] (first compound 2 µM, partner dose 4 µM)	43.2	58.2	63.9	50.9	37.4	19.3	53.5	48.4	6.42	66.3
Cc1ccc(Nc2nccc(N(C)c3ccc4c(C)n(C)nc4c3)n2)cc1S(N)(=O)=O [Pazopanib] + Nc1ncn([C@H]2C[C@H](O)[C@@H](CO)O2)c(=O)n1 [decitabine] (first compound 2 µM, partner dose 0.5 µM)	102	101	94.7	84	86.6	62.4	77.5	67.7	94.4	84
O=C(/C=C/c1cccnc1)NCCCCC1CCN(C(=O)c2ccccc2)CC1 + CCN(CC)CCNC(=O)c1c(C)[nH]c(/C=C2\C(=O)Nc3ccc(F)cc32)c1C [sunitinib] (first compound 0.05 µM, partner dose 2 µM)	37.8	22.1	45	55.2	88.3	51.7	63.1	72.4	67.1	56.5
Cc1ccc(Nc2nccc(N(C)c3ccc4c(C)n(C)nc4c3)n2)cc1S(N)(=O)=O [Pazopanib] + CC1(C)NC(=O)N(c2ccc([N+](=O)[O-])c(C(F)(F)F)c2)C1=O [nilutamide] (first compound 2 µM, partner dose 5 µM)	91.2	97.8	99.5	74	79	67.2	136	106	104	82.4
Cc1ccc(Nc2nccc(N(C)c3ccc4c(C)n(C)nc4c3)n2)cc1S(N)(=O)=O [Pazopanib] + OCCn1cc(-c2cnc3nnn(Cc4ccc5ncccc5c4)c3n2)cn1 [PF04217903] (first compound 2 µM, partner dose 5 µM)	102	82.3	98.4	78.7	89.1	84.2	90.6	90.3	98.5	83.2
